Laboratory results as given in PMC4336329 (PLoS ONE, 2015).
Hit rate of the full screen: of about 310,000 compounds, about 14,000 (4.5%) showed an effect of 50% or more. Effects have a minus sign here. Some of the results follow.

target: human ether-à-go-go-related gene (hERG) potassium channel (human, UniProt Q12809); experiment: primary screen, population patch clamp on CHO cells stably expressing hERG
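Note: peak tail current of the secondary pulse compared with the same well before compound.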

Sequence of human ether-à-go-go-related gene (hERG) potassium channel (Q12809 whole entry, looked up): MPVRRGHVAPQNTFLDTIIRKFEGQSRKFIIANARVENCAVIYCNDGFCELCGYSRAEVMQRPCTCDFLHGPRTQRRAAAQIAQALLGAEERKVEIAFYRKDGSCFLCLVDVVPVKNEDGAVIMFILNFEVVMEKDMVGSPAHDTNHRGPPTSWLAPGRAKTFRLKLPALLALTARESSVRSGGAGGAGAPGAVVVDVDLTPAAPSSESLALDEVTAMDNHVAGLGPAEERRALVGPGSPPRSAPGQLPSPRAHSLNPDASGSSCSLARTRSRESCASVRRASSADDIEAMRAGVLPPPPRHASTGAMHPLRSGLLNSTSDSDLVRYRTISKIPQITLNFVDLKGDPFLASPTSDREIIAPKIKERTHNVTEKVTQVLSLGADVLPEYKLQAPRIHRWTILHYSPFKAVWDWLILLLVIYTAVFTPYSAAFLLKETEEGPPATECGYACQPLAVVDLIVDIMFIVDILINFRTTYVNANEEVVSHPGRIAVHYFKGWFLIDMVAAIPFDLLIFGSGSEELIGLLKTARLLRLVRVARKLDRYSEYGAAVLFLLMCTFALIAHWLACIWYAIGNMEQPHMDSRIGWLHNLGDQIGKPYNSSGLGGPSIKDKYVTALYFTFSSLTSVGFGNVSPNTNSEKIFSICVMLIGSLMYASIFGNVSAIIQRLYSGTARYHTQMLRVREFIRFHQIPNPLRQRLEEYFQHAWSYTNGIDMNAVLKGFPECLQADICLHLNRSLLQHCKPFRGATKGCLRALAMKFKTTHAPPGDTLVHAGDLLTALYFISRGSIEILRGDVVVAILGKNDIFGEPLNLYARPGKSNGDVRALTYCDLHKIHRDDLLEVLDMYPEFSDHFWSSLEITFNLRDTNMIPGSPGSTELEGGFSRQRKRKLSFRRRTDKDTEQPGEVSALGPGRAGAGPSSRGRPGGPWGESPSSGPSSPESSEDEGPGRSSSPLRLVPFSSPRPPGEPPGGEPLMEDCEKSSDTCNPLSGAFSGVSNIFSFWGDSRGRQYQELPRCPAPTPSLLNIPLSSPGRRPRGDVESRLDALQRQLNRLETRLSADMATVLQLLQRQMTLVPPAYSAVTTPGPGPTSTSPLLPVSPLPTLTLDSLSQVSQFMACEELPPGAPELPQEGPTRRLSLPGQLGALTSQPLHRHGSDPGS

| SMILES | hERG current change (%, negative = inhibition) at 10uM [%] |
| --- | --- |
| CC1=C(C(=O)Nc2ccccn2)C(c2ccccc2Cl)NC(=S)N1 (stereo not shown) | 10.1 |
| Cc1ccc(CNC(=O)CO/N=C/c2ccc(C(C)(C)C)cc2)cc1 | 22.1 |
| Cn1c(=O)c2c(SCC(=O)NC3CCCC3)nc(CC(C)(C)C)nc2n(C)c1=O | 5.51 |
| Cc1ccc(NC(=O)c2sc3nc[nH]c(=O)c3c2C)c(C)c1 | 2.03 |
| C=C(C)CNC(=S)Nc1cccc(S(=O)(=O)NC2=NCCC2)c1 | 17.3 |
| O=C(O)CSC1CC(=O)N(c2cccc(Cl)c2)C1=O (stereo not shown) | 15.2 |
| CCCCS(=O)(=O)N1CCCC(C(=O)NCC2CCCO2)C1 (stereo not shown) | 8.43 |
| Cc1n[nH]c(C)c1S(=O)(=O)N1CCN(C2CCCCC2)CC1 | -0.909 |
| O=C(CSC(=S)N1CCCC1)Nc1cc2c(cc1Br)OCCO2 | 11.2 |
| C=CCn1cnc2scc(-c3ccc(CC)cc3)c2c1=O | -20.9 |
| Cc1ccc(CN2CCNC(=O)C2CC(=O)N(C)C2CCOCC2)cc1 (stereo not shown) | 9.55 |
| CN(CC(=O)Nc1cccc(F)c1)C(=O)CSc1ccccc1F | 12.8 |
| OCCC1CN(Cc2cccc3c2OCO3)CCN1Cc1ccccc1 (stereo not shown) | -3.38 |
| CCC(C)(C)n1nnnc1C(c1ccc(OC)c(OC)c1)N1CCN(c2ccccc2)CC1 (stereo not shown) | -39.5 |
| COCCN(Cc1ccccc1)C(=O)Cc1ccc(OC)c(S(=O)(=O)N2CCOCC2)c1 | -19 |
| O=C(Nc1ccccc1N1CCCCC1)c1ncoc1-c1cccc(F)c1 | 10.3 |
| CCOc1ccc(S(=O)(=O)N2CCN(C(=O)c3sccc3C)CC2)cc1 | -1.73 |
| COc1ccc(C2C(C#N)=C(N)Oc3cc(C)[nH]c(=O)c32)cc1OC (stereo not shown) | 7.08 |
| CCOc1ccc(C(=O)NCc2cccnc2)cc1 | -3.41 |
| COc1cc2c(cc1NC(=O)C(C)Sc1nc3ccccc3n1C)oc1ccccc12 (stereo not shown) | 16.2 |
| OCCC1CN(Cc2cccn2-c2cccnc2)CCN1Cc1ccccc1 (stereo not shown) | -42.4 |
| O=C(NC(Cc1c[nH]c2ccccc12)C(=O)O)/C(=C\c1ccccc1)NC(=O)c1ccccc1 (stereo not shown) | 9.54 |
| COC(=O)C1(CCSC)NC(c2ccco2)C2C(=O)N(C)C(=O)C21 (stereo not shown) | 3.91 |
| O=C(CN1N=C(c2ccc(Cl)cc2)CCC1=O)NCc1cccnc1 | -26.4 |
| CC(C)c1ccc(N(CC(=O)NCc2cccnc2)S(=O)(=O)c2ccccc2)cc1 | -27 |
